Results reported in the antibiotic and cytotoxicity screens of Wong et al. (2023).
The list shows a part of the results.

The compounds below were run on HSkMC (human skeletal muscle cells) (assay: cytotoxicity call (relative viability < 0.9)). Conditions: 10 µM.

| Structure (SMILES) | cytotoxicity call |
| --- | --- |
| COc1ccc(CN(C)C[C@@H]2Oc3ccc(NC(=O)Nc4ccc(C(F)(F)F)cc4)cc3CC(=O)N([C@H](C)CO)C[C@H]2C)cc1 | inactive |
| C[C@@H]1CCCCO[C@H](CN(C)C(=O)c2ccccc2)[C@@H](C)CN([C@H](C)CO)C(=O)c2cc(NC(=O)c3ccccc3)ccc2O1 | inactive |
| Cc1ccc2nc(Nc3ccccc3)nc(-c3ccccc3)c2c1 | inactive |
| CN1CCN(C(=O)C[C@H]2CC[C@@H]3[C@H](COC[C@H](O)CN3S(=O)(=O)c3cccc(Cl)c3)O2)CC1 | inactive |
| C[C@H]1CN([C@@H](C)CO)C(=O)Cc2cc(NS(=O)(=O)c3ccccc3)ccc2O[C@H]1CN(C)Cc1ccc(Cl)c(Cl)c1 | inactive |
| COc1ccc(S(=O)(=O)N(C)C[C@H]2Oc3ccc(N(C)C)cc3CC(=O)N([C@H](C)CO)C[C@H]2C)cc1 | inactive |
| Cc1n[nH]c(C)c1N | inactive |
| COc1ccc(-c2cn(CCNC(=O)[C@@H](NS(=O)(=O)c3ccc(C)cc3)C(C)C)nn2)cc1OC | inactive |
| C[C@H](CO)N1C[C@H](C)[C@H](CN(C)C(=O)C2CCCCC2)OCCCC[C@H](C)Oc2ccc(NC(=O)c3ccccc3)cc2C1=O | inactive |
| Nc1ccn([C@@H]2C[C@@H](O)[C@H](CO)O2)c(=O)n1 | inactive |
| Cc1noc(C)c1S(=O)(=O)N(C)C[C@@H]1Oc2ccc(NS(=O)(=O)c3cccs3)cc2CC(=O)N([C@H](C)CO)C[C@@H]1C | inactive |
| COC(=O)[C@H](Cc1ccccc1)NC(=O)[C@@H](N)CC(=O)O | inactive |
| CCS(=O)(=O)Nc1ccc2c(c1)C(=O)N(C)[C@@H]1CC[C@@H](CC(=O)N[C@H]3CCN(Cc4ccccc4)C3)O[C@@H]1CO2 | inactive |
| Cc1noc(C)c1NC(=O)N(C)C[C@@H]1Oc2cc(C#CCN(C)C)ccc2S(=O)(=O)N([C@@H](C)CO)C[C@H]1C | inactive |
| COc1ccc([Si](C)(C)[C@H]2[C@H](CC(=O)N3CCC[C@H]3CO)O[C@@]3(C(=O)N(Cc4ccc(N5C(=O)c6cccc7cccc5c67)cc4)c4ccccc43)[C@@H]2C)cc1 | inactive |
| C[C@H]1CN([C@@H](C)CO)C(=O)c2cccc(NC(=O)Nc3ccccc3)c2O[C@@H]1CN(C)Cc1ccc(Oc2ccccc2)cc1 | active |
| Cc1cc(C(=O)c2cc3cc(Cl)ccc3o2)ccc1Cl | inactive |
| C[C@@H]1CCCCO[C@@H](CN(C)Cc2ccc(C(=O)O)cc2)[C@H](C)CN([C@H](C)CO)C(=O)c2cc(NC(=O)Nc3ccc(C(F)(F)F)cc3)ccc2O1 | inactive |
| O=C(C[C@@H]1CC[C@@H]2[C@H](COC[C@H](O)CN2S(=O)(=O)c2ccc(F)cc2)O1)NCCN1CCCCC1 | inactive |
| Cc1noc(C)c1S(=O)(=O)N(C)C[C@@H]1OCCCC[C@@H](C)Oc2ccc(NC(=O)Nc3ccccc3)cc2C(=O)N([C@H](C)CO)C[C@@H]1C | inactive |

| Structure (SMILES) | cytotoxicity call |
| --- | --- |
| CN1CCN(C(=O)C[C@H]2CC[C@H](NC(=O)Cc3ccccn3)[C@@H](CO)O2)CC1 | inactive |
| CN(C)C(=O)c1ccc(-c2cccc(-c3nc(C(=O)NCc4ccccc4)cc4c3[C@@H](CCO)N([S@@](=O)C(C)(C)C)C4)c2)cc1 | active |
| Cc1ccc(S(=O)(=O)N(C)C[C@@H]2Oc3c(NS(C)(=O)=O)cccc3C(=O)N([C@@H](C)CO)C[C@H]2C)cc1 | inactive |
| C=CCN1C(=O)[C@@H]2[C@@H](C1=O)[C@@H]1C=C[C@@H]2C1 | inactive |
| Cc1cc(-c2cc[nH]n2)c(C)s1 | inactive |
| Oc1cccc(O)c1 | inactive |
| COCCN1C[C@H]2[C@H](OC)CCN(S(=O)(=O)c3cn(C)cn3)[C@H]2C1 | inactive |
| C[C@H]1CN([C@@H](C)CO)C(=O)Cc2cc(NC(=O)CCN3CCOCC3)ccc2O[C@@H]1CN(C)S(=O)(=O)c1ccc(Cl)cc1 | inactive |
| CN1C(=O)c2cc(NC(=O)Nc3ccccc3F)ccc2OC[C@H]2O[C@@H](CC(=O)NCc3ccc(-c4ccccc4)cc3)CC[C@@H]21 | inactive |
| COCC#Cc1cnc2c(c1)C(=O)N([C@@H](C)CO)C[C@H](C)[C@@H](CN(C)C(=O)c1cnccn1)O2 | inactive |
| O=C(C[C@H]1CC[C@@H](NC(=O)c2cnccn2)[C@@H](CO)O1)NCc1ccccc1F | inactive |
| COc1cc2c(cc1OC)-c1c(oc3cc4c(cc3c1=O)CCO4)CO2 | inactive |
| C[C@H](CO)N1C[C@H](C)[C@H](CN(C)C(=O)Nc2ccc(C(F)(F)F)cc2)Oc2ccc(NC(=O)Cc3ccccc3)cc2CC1=O | inactive |
| CCOC(=O)[C@H]1CC(C)=NNC1=O | inactive |
| COC(=O)c1c2oc(c1C(=O)OC)C(=O)N[C@H](Cc1ccccc1)Cn1cc(nn1)CNC(=O)[C@@H](Cc1ccccc1)NC(=O)N[C@@H](CO)CC2 | inactive |
| C[C@H](CO)N1C[C@H](C)[C@H](CN(C)S(=O)(=O)c2ccc3c(c2)OCCCO3)OCc2cnnn2CCCC1=O | inactive |
| C[C@@H](O)CC1=C[C@H]([C@@H](C)O)OC1=O | inactive |
| C[C@H]1CN([C@@H](C)CO)C(=O)c2cccc(NC(=O)Nc3ccccc3)c2O[C@H]1CN(C)Cc1ccc(-c2ccccc2)cc1 | inactive |
| O=c1cn[nH]c(Nc2ccccc2)n1 | inactive |
| CN(C)CCC(c1ccccc1)c1ccccn1.O=C(O)C=CC(=O)O (stereo not given) | inactive |
